Results taken from paper PMC12136788.
The list shows a part of the results.

B1: ENSG00000198589:be:win_8301|CDS|ENSG00000198589|bound_else_gene|NA|bound_elsewhere_windowed (ssRNA)
RNA: GGGAGUUCUACAGUCCGACGAUCAGAUGAUAACAUAAGAGCCAUCCAGCUGAGCCGAGAUGGGCAGUACCUGCUCACAGGAGGAGACAGAGGAGUGGUCGUGGUCCGGCAGGUGUCGGACCUCAAGCAGCUCUUUGCCUAUCCCAACAGAGGAUUGAGCAUCA
B2: chr22:29528936:29529239:-|three_prime_utr|ENSG00000100296|control|control|control (ssRNA)
RNA: GGGAGUUCUACAGUCCGACGAUCGAUUCGUCCCCCAGGGACACCAGGUCACCAUCCAAGGGCAGUCCUGGUCUUUGGAGAACUAGCUGGACUAGUUCUGUGUAGCAGGAAGCUUGACUUGAAUGUCUUAGCACCCUGGAGUAGCAACAGAGGAUUGAGCAUCA
B3: ENSG00000107863:be:win_6451|3pUTR|ENSG00000107863|bound_else_gene|NA|bound_elsewhere_windowed (ssRNA)
RNA: GGGAGUUCUACAGUCCGACGAUCGUAAAAUACGUAACUUAAAUGAACAUAUUAAAUGUGUAUCUUUUCUUCAGAUACCAGAUUUGAUAUAAUGUUGUAACAUAGGUGUGUAGAUAGUGGAUCCUGGAUGGAACUGGCUUCUUUCAACAGAGGAUUGAGCAUCA
B4: chr6:52502144:52502313:-|3pUTR|ENSG00000065308|msi1|FALSE|unique (ssRNA)
RNA: GGGAGUUCUACAGUCCGACGAUCUCAGCCAUUCACAAGCAUUCAAAACCAAACCAAACAGCAGUUCAUAUACCUGCCUGAGAUAGGCUGGUCCUCACCUCCAGAGCCAGCCAGCCCCGUCAGGGGCCAAACUUACUACCUUGACAACAGAGGAUUGAGCAUCA
B5: ENSG00000126767:stop:overlap|stop_codon|ENSG00000126767|stop_codon|NA|stop_codon (ssRNA)
RNA: GGGAGUUCUACAGUCCGACGAUCUGAGCGGCCAGAAGUUCGUCUACAAGUUUGUGUCCUACCCUGAGUCCCAUUGCGCCCCGUAGCCCGGCCAAGCUCUCCUUCCAGUUUCCAUCCAGUGGCAGCGCCCAGGUGCACAUCCCUCAACAGAGGAUUGAGCAUCA
B6: ENSG00000011304:stop:overlap|stop_codon|ENSG00000011304|stop_codon|NA|stop_codon (ssRNA)
RNA: GGGAGUUCUACAGUCCGACGAUCACAACCACGACCUCGGGGAGAACCACCACCUGCGGGUCUCCUUCUCCAAGUCCACCAUCUAGGGGCACAGGCCCCCACGGCCGGGCCCCCUGGCGACAACUUCCAUCAUUCCAGAGAAAACAACAGAGGAUUGAGCAUCA
B7: chr3:98799072:98799370:-|3pUTR|ENSG00000057019|msi1|total|mutant (ssRNA)
RNA: GGGAGUUCUACAGUCCGACGAUCCAAAGCAUCGUUUUAAAGCACAUGGCCUUUUUUUUUUAAUUAUCCGUGGCCGUAAUAUACCGAAUGUAUUACAUAACUGUCACUGAAGUGGUUGGGGAAAAUGUGGUGACUGAGGUACAGCAACAGAGGAUUGAGCAUCA
B8: chr11:60923185:60923286:+|3pUTR|ENSG00000110108|msi1|total|mutant (ssRNA)
RNA: GGGAGUUCUACAGUCCGACGAUCCAGAGAGCAGGGUGAGCUGCCAGCUGCCCCUCUCCACCAGGGUACCCUGUCUUGGUGGUCCGGGGCCACUUUUCCUUUGAGGCUCCCGUGGAGGUGGAUGUCCUUCUCUGCCAGGCUUGGCAACAGAGGAUUGAGCAUCA
B9: chr14:22633770:22634811:-|CDS|ENSG00000255804|control|control|control (ssRNA)
RNA: GGGAGUUCUACAGUCCGACGAUCAGUGGAAGGAAGAAGGCCUUUAAUACCUGUGCUUCCCACCUGACCAUAGUCAUCAUUUCUAGUGGCAUCACUGUGUUUAUCUAUGUGACUCCCUCCCAGAAAGAAUAUCUGGAGAUCAACCAACAGAGGAUUGAGCAUCA
B10: chr1:223774945:223775046:+|3pUTR|ENSG00000162909|msi1|total|mutant (ssRNA)
RNA: GGGAGUUCUACAGUCCGACGAUCAAAUACACUUUGUAUCUGGACCUCAAAAUUAUGGGAACAUUUACUUAAACGGAUGAUCACCGCUGAAAAUAAUGAUACUGUCAAUUUGAGACCGCAGAAGUUUCACACAUCAAAGUAAAACAACAGAGGAUUGAGCAUCA
B11: ENSG00000172071:stop:overlap|stop_codon|ENSG00000172071|stop_codon|NA|stop_codon (ssRNA)
RNA: GGGAGUUCUACAGUCCGACGAUCCAUCGGGAACAAAACAUUCAAGACAGUCCAACAACUCCCAUAGCCCUUUGCCAAGCAAUUAGCCUUAAGUUGUGCUAGCAACCCUAAUAGGUGAUGCAGAUAAUAGCCUACUUCUUAGAACAACAGAGGAUUGAGCAUCA
B12: chr7:100040983:100041096:+|3pUTR|ENSG00000106261|unk|total|mutant (ssRNA)
RNA: GGGAGUUCUACAGUCCGACGAUCGACCGCCAAGCAAAAUCAGUAAUUAUUUUAAAAUGAACAUAUGUAUUUUUAUUAACUUUCCGUUAAAUACAGAUUUUACAACGAGGUCAGCAUAAGCCUAAAUCUAUACCGAGGGCUAACCAACAGAGGAUUGAGCAUCA
B13: chr4:56448489:56448593:+|CDS|ENSG00000128050|unk|FALSE|bound_elsewhere (ssRNA)
RNA: GGGAGUUCUACAGUCCGACGAUCCCCACAGUGGUCUGAGGAACAGCUGAUUGCUGCAAAAUUUUGCUUUGCUGGACUUCUUAUAGGCCAGACUGAAGUGGAUAUCAUGAGUCAUGCUACACAGGCUAUAUUUGAAAUACUGGACAACAGAGGAUUGAGCAUCA
B14: chr14:39095999:39096113:-|CDS|ENSG00000100934|unk|total|mutant (ssRNA)
RNA: GGGAGUUCUACAGUCCGACGAUCACAAUGACAACCUAUUUGGAAUUCAUUCAACAAAAUGAAGAACGAGAUGGAGUCCGAUUCCGUUGGAAUGUUUGGCCAUCAAGUCGACUGGAAGCUACAAGAAUGGUUGUUCCUGUGGCACAACAGAGGAUUGAGCAUCA
B15: chr8:97851540:97851652:+|3pUTR|ENSG00000104341|msi1_unk|total|mutant (ssRNA)
RNA: GGGAGUUCUACAGUCCGACGAUCCACUUUUGCCAUGAGCCUCUCUGAGCUUGUUUGUUGCUGAAAUGCUACUUUUUAAAAUUCCGAUGUCCGAUUGAAAACUGCCGUUUUCAACAUAUGCUUUGCUGGAACACUGUGACCGAUCAACAGAGGAUUGAGCAUCA
B16: ENSG00000155158:stop:overlap|stop_codon|ENSG00000155158|stop_codon|NA|stop_codon (ssRNA)
RNA: GGGAGUUCUACAGUCCGACGAUCAAACCAUCUCAAUUUGGCUUAAAAAAAAAUCUGGUAGAAGAGAGGGAAAGACAUCUUCAUAGUGGGACUAUAUUCAUUCCUCCAAAGUUACAGCUGCUCUAAAUCUGUGAGUGCUGAAAUCAACAGAGGAUUGAGCAUCA
B17: chr1:113764432:113764533:-|3pUTR|ENSG00000081019|msi1|FALSE|bound_elsewhere (ssRNA)
RNA: GGGAGUUCUACAGUCCGACGAUCAAAAUAUUCUGAAAUAGGUUAAAUCUUAUAUAAAUAUUACUUUGUGCAAUAUUGUUGUGUAGUUAAAUGCAUAUUAGCAAAGUAUAGAGGUCACUGUGUAAACCGAUAGAAAAGUAACCACAACAGAGGAUUGAGCAUCA
B18: ENSG00000124766:be:win_701|CDS|ENSG00000124766|bound_else_gene|NA|bound_elsewhere_windowed (ssRNA)
RNA: GGGAGUUCUACAGUCCGACGAUCCCGCCUCCUUCGCCGCCGAACAGGCGGGGGCCGCCGCCCUGCUGCCCCUGGGCGCCGCCGCCGACCACCACUCGCUGUACAAGGCGCGGACUCCCAGCGCCUCGGCCUCCGCCUCCUCGGCAACAGAGGAUUGAGCAUCA
B19: chr1:161222291:161222522:-|three_prime_utr|ENSG00000158874|control|control|control (ssRNA)
RNA: GGGAGUUCUACAGUCCGACGAUCACACAGCCUGCCACCCAGUGAAGUGUCCAGACCAUUGUCUUCCAACCCCAGCUGGCCUCUAGAACACCCACUGGCCAGUCCUAGAGCUCCUGUCCCUACCCACUCUUUGCUACAAUAAAUCAACAGAGGAUUGAGCAUCA
B20: ENSG00000198589:be:win_3101|CDS|ENSG00000198589|bound_else_gene|NA|bound_elsewhere_windowed (ssRNA)
RNA: GGGAGUUCUACAGUCCGACGAUCUGGAAGAAACACUGACAAAUGAGACAAGGAAUGCAGAUGAUUUAGAAGUAUCUUCUGACAUAAUAGAAGCUGUGGCUAUUUCCUCUAAUUCUUUUAUAACAACUGGCAAAGAUUCAAUGACAACAGAGGAUUGAGCAUCA
B21: chrX:150768173:150768360:-|3pUTR|ENSG00000102181|msi1|total|mutant (ssRNA)
RNA: GGGAGUUCUACAGUCCGACGAUCUCCCAUCUGAUUCCACCGGGGGCUGGGUGUGGCCUUCGGGUUGACAUGAGAAAGGUCUUCCGCAAUCAUUUCUGCACCGGAGAUGAGUUUUAUCCUGUGUUGGGGAGAGGUGCUCACCCUCAACAGAGGAUUGAGCAUCA
B22: chr3:141442868:141442977:+|CDS|ENSG00000177311|unk|total|mutant (ssRNA)
RNA: GGGAGUUCUACAGUCCGACGAUCCCAGCCAUCACUAAUGGGCCAAGGAUCACAAAUGCAUUUUCCAUCAUCGAAACAGAAAACCGUAAUAACAUGUUUUCCCCGCUGGACUUGAGGGCAAGUUUCAAAAAGGUCUCCGACUCCCAACAGAGGAUUGAGCAUCA

The binders below were run against MSI1 full-length (mouse, UniProt Q61474 1-362) (assay: nsRBNS (natural sequence RNA bind-n-seq); RBNS binding buffer (assumed for nsRBNS): 25 mM Tris pH 7.5, 150 mM KCl, 3 mM MgCl2, 0.01% Triton X-100, 500 ug/ml BSA, 20 U/ml SUPERase-In, 4 C; UNK is unkempt and MSI1 is Musashi-1; names of the RNAs are library labels; protein concentration not given here; high values mean tight binding).
Chain of UniProt Q61474 (Q61474 whole entry): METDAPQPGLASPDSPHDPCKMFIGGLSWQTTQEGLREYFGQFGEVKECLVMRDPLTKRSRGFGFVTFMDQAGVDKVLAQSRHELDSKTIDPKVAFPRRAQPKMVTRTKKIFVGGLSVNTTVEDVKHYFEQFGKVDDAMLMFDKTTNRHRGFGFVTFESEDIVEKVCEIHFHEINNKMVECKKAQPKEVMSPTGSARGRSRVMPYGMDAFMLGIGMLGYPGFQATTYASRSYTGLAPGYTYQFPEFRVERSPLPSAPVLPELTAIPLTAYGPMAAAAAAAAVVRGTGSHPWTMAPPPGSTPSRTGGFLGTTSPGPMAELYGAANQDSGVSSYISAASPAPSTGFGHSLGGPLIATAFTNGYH
B1 gave a binding signal of 0.431 enrichment R.
Work on B2 yielded a binding signal of 0.604 enrichment R.
For B3, the binding signal was 0.743 enrichment R.
With B4 the binding signal was 0.706 enrichment R.
For B5, the binding signal was 0.671 enrichment R.
Binder B6 has a binding signal of 0.494 enrichment R.
In the case of B7, the binding signal is reported as 0.493 enrichment R.
B8 was tested, and the binding signal was 0.363 enrichment R.
B9 gave a binding signal of 0.57 enrichment R.
Binder B10 has a binding signal of 0.211 enrichment R.
For B11, the binding signal was 2.07 enrichment R.
B12 was tested, and the binding signal was 1.13 enrichment R.
Binder B13 has a binding signal of 0.279 enrichment R.
B14 was tested, and the binding signal was 0.243 enrichment R.
With B15 the binding signal was 0.302 enrichment R.
Work on B16 yielded a binding signal of 0.487 enrichment R.
With B17 the binding signal was 51.3 enrichment R.
Work on B18 yielded a binding signal of 0.387 enrichment R.
In the case of B19, the binding signal is reported as 1.04 enrichment R.
For B20, the binding signal was 0.533 enrichment R.
Binder B21 has a binding signal of 0.431 enrichment R.
Binder B22 has a binding signal of 0.41 enrichment R.
